Patent publication US20190112375A1 (Bristol-Myers Squibb, published 2019)

Target: T1, human TIGIT (soluble, SPR; construct not stated) (human, UniProt Q495A1 22-141, limits assumed)
T1 construct: whole entry named; also called huTIGIT
T1 sequence: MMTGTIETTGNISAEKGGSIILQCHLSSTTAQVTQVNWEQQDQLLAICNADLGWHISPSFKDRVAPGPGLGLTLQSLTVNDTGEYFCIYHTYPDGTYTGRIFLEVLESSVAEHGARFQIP
Experiment: SPR

B1: 15A6 IgG1f (antibody)
heavy: QLQLQESGPGLVKPSETLSLTCTVSGGSISSSRYFWGWIRQPPGKGLEWIGYIYYRGSTYYNPSLKSRVTIAVDTSKNQFSLKLSSVTAADTAVYYCASSSAWYFDYWGQGNLVTVSSASTKGPSVFPLAPSSKSTSGGTAALGCLVKDYFPEPVTVSWNSGALTSGVHTFPAVLQSSGLYSLSSVVTVPSSSLGTQTYICNVNHKPSNTKVDKRV[skipping human IgG1 Fc]
VL: [skipping about 100 residues]
notes: kappa light chain
Kd: 1.5 nM | koff: 0.0015 s⁻¹ | kon: 1e+06 M⁻¹ s⁻¹
